± gives the standard deviation. Only a part is listed here, and it is no random draw.
test system: MIWI (PIWIL1) piRISC loaded with L1MC piRNA (30 nt); experiment: pre-steady-state target cleavage rate (min^-1); MIWI and MILI are mouse PIWI proteins and EfPiwi is from a freshwater sponge; tags in brackets are library labels; higher = faster piRNA-guided slicing of the target; settings: guide: L1MC piRNA 5'p-UAACUAAAUACUAUGCAAGCUGUAGGUCCU; auxiliary factor: none (no GTSF1)
In short: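 The pre-steady-state cleavage rate was derived from a burst-and-steady-state fit of Cleave-'n-Seq data. For these assays, 1 nM active affinity-purified piRISC loaded with a single synthetic guide was mixed with […] a transcribed, DNA-blocked target RNA library in HEPES–potassium acetate buffer at 33 °C, with or without 500 nM GTSF1 partner protein, for 0–8 or 0–960 min. Sequencing counts of uncleaved targets were normalised to depth and to weakly complementary targets, and k3 was capped at 0.0001 min^-1 after three trials were pooled.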
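Also: 1 nM active piRISC with 0.1 nM target library at 33 °C single turnover.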

| Sequence | pre-steady-state target cleavage rate |
| --- | --- |
| AAGGACCUACAGCUUGCAUAGUAUUUAGUUA | 0.0755 ± 0.014 |
| AGGACCUACAGCUUGCAUAGUUUUUAGAUA | 0.0189 ± 0.0055 |
| UCCUGGAACAGCUUGCAAAGUAUUAAGUUA | 0.0119 ± 0.0043 |
| UCCUCCUACAGGUUGCUUAGUAUUUAGUUA | 0.0114 ± 0.0023 |
| UCCACCUACAGCUAGCAUAGAAUUUAGUUA | 0.00696 ± 0.0026 |
| UCCUGCUACAGCUUGCAUAGUAUUAAGUAA | 0.00572 ± 0.0029 |
| AGGUCCUACAGCUUGCAUAGUAUUUAGUUA | 0.111 ± 0.019 |
| UCCUCCUACAGCUUGCAUACUAUAUAGUUA | 0.0096 ± 0.0023 |
| UCCUCCUACAGCUUGCAUAUUAUUUAGUUA | 0.0449 ± 0.009 |
| UCGACCUACAGCUUGCAUUGUUUUUAGUUA | 0.00774 ± 0.0015 |
| UCCUGGAACAGCUUGGAUAGUAUAUAGUUA | 0.0187 ± 0.0053 |
| UCCUGGAAGAGCUUGCAUAGUAUAUAGUUA | 0.0148 ± 0.0034 |
| AGGACCUACAGCAUGCAUAGUUUUUAGUUA | 0.0219 ± 0.0042 |
| UCCACCUUGAGCUUGCAUAGUAUUUAGAAA | 0.00444 ± 0.0019 |
| UCCAGCUACAGCUUGCAUAGUAUUUAGUAA | 0.0182 ± 0.0027 |
| UCCUGGAACAGCUUGCAUAGUAUUUAGUA | 0.00904 ± 0.0031 |

From the supplement of paper PMC10338343
